This is one part of the list. At the low end of the ranking the order means little.

The target of this assay is T1, GST-Rok-C97-191 (UniProt O34857).
T1 sequence: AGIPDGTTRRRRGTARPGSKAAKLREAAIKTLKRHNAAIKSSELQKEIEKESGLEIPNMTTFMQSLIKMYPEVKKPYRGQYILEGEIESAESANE
Kind of assay: protein binding microarray.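 Note: rank score from −0.5 (least bound) to 0.5 (best bound).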 As to conditions: Rok is a gene silencer of Bacillus subtilis; high values mean tight binding; most listed sequences are background and not binding sites; double strand, one strand shown.
As for TCCTGCGA, the binding signal was -0.149 E-score.
In the case of AAGGGCGC it was -0.216 E-score; in that of ACGAGGTG, -0.0517 E-score; in that of ACTACGTC, 0.107 E-score.
In the case of AACAAGCT it was -0.105 E-score.
In the case of CCACAAGG it was -0.265 E-score; in that of TAAGAACA, 0.0838 E-score; in that of ATGTCCAC, -0.0386 E-score.
As to AAGAGACG, the binding signal was -0.0857 E-score.
The sequence AGCATTCC gave a binding signal of 0.0745 E-score.
In the case of CTGTCAAG it was -0.11 E-score.
In the case of ATTAAAGG it was -0.155 E-score.
As for ATCGCCGA, the figure is -0.089 E-score; as for AGGGTTCG, -0.182 E-score.
In turn, ATTGCGGG gave a binding signal of -0.154 E-score.
As for AACAAGGA, the figure is -0.0469 E-score.
As for ATCTCGGG, the figure is 0.0948 E-score; as for ATCGCGTC, -0.062 E-score.
As for CCAGCAAG, the figure is 0.0935 E-score.
GGTTCTAA gave a binding signal of -0.0779 E-score.
As for ACAGCTTG, the figure is -0.0952 E-score; as for AAGCTTGC, -0.0667 E-score.
As for AGAAGGGA, the figure is -0.178 E-score; as for ATCACGTG, 0.203 E-score.
With CGGGTGCC, the binding signal is -0.198 E-score.
GGCCCTAA yielded a binding signal of -0.21 E-score.
As for ATGCTAAC, the figure is 0.0463 E-score; as for ACGCTGCT, -0.192 E-score.
As for ACGTAAGA, the figure is 0.171 E-score; as for AAGGCTGT, -0.191 E-score; as for ACACGAAA, 0.0148 E-score.
In the case of ACCAACGA it was -0.0442 E-score.
With CGGCAGAC, the binding signal was -0.0726 E-score.
As for GGCTAGCA, the figure is 0.0134 E-score.
As for CGAGACCC, the figure is 0.0527 E-score; as for CGGGATGA, -0.0452 E-score; as for TGGCTACA, -0.194 E-score.
Consider CGTGATTA, for which the binding signal was 0.0283 E-score.
In the case of CGAGGGCG it was -0.211 E-score; in that of AGCGTATG, -0.0372 E-score; in that of ACTAATCT, 0.219 E-score.
As for AGCCAGTG, the figure is -0.277 E-score.
AGACTCGA displayed a binding signal of -0.0683 E-score.
As for GGCAAGCA, the figure is -0.204 E-score; as for GGTCGGAC, -0.173 E-score; as for ATAAGGGG, -0.198 E-score.
Regarding CCCTAGTA, the binding signal is 0.126 E-score.
In the case of CTGCTTAC, the binding signal was found to be 0.115 E-score.
In the case of CCGTAGCA it was 0.075 E-score; in that of AGTCAATG, -0.121 E-score.
In the case of CATAATTA it was 0.2 E-score; in that of ATTCATAA, 0.3 E-score.
As to AGAGTACA, the binding signal was found to be 0.0945 E-score.
In turn, AAAACCTC displayed a binding signal of 0.00635 E-score.
In the case of GACCGCCC it was -0.194 E-score.
In the case of CGAGGGCC it was -0.257 E-score.
As to GGGAAAAA, the binding signal was 0.0895 E-score.
For TTGAACAA, the binding signal was 0.0664 E-score.
ACCCACAA displayed a binding signal of 0.0446 E-score.
As for AGACTCAT, the figure is -0.158 E-score; as for CTAATGAG, -0.166 E-score.
In the case of GCGGCGAC it was -0.316 E-score; in that of GGGGCTAC, -0.217 E-score; in that of AAATCGTT, 0.0574 E-score.
As for ACGATGAC, the figure is -0.181 E-score; as for CGACGACG, -0.0748 E-score.
The sequence TACGGCTA came in with a binding signal of 0.00794 E-score.
In the case of CGGTGCAC it was -0.289 E-score; in that of GTAGCTAC, 0.428 E-score; in that of AAGCTCCA, -0.0852 E-score.
In the case of CTTACACA it was -0.000989 E-score.
As for AGGTTCTA, the figure is 0.118 E-score; as for ACCCTTCG, -0.18 E-score; as for CGACCACC, -0.152 E-score.
Sequence GCGTTTGA displayed a binding signal of -0.0325 E-score.
As for GATAGCGA, the figure is 0.0913 E-score; as for CCCGGCGA, -0.168 E-score; as for TACAAGGA, 0.0478 E-score.
In the case of AATATCGA it was 0.164 E-score; in that of ACCGGCCC, -0.158 E-score; in that of CATCCCTC, -0.221 E-score.
In the case of CATCGTGG it was -0.184 E-score; in that of GAACGACA, 0.0828 E-score.
CTCTTTCA showed a binding signal of -0.118 E-score.
As for CGCCCGGC, the figure is -0.331 E-score; as for GAGCGAGA, -0.075 E-score; as for ATCTGTCA, -0.24 E-score.
In the case of AGGTAGAC it was 0.093 E-score; in that of GCTAGATA, 0.288 E-score; in that of AACCGATC, 0.0855 E-score.
As for TCGCGTCA, the figure is -0.108 E-score.
ACTCTAAT registered a binding signal of 0.184 E-score.
As for CGACGGTA, the figure is 0.0893 E-score; as for CTATACCC, 0.0148 E-score.
As for AGCTGTTC, the figure is 0.00614 E-score; as for GCACGCCA, -0.0366 E-score; as for CAAGAGCC, -0.112 E-score.
In turn, TACATTAA came in with a binding signal of 0.242 E-score.
In the case of CGGGCACG it was -0.195 E-score; in that of TATCTCGA, 0.128 E-score; in that of AGCGGGTC, -0.00397 E-score.
As for CCGACACA, the figure is -0.054 E-score; as for ATGCCTGA, -0.0618 E-score; as for CCTGCTGA, -0.155 E-score.
As for ACCTATGG, the figure is -0.223 E-score.
Turning to ATCAGGAG, the binding signal is -0.202 E-score.
Consider ACGCAACT, for which the binding signal was found to be 0.0546 E-score.
As for ACTCCTGC, the figure is -0.0798 E-score.
Sequence AAAAACTG displayed a binding signal of 0.0182 E-score.
The sequence ACCAAAAT registered a binding signal of 0.113 E-score.
As for CCGGAACG, the figure is -0.0427 E-score; as for GAAGATCA, 0.0878 E-score; as for ACTCAGGG, -0.0646 E-score.
In the case of ACCGCGTG it was -0.177 E-score.
In the case of CCCATCAA it was -0.094 E-score.
Sequence AGGCCAAT returned a binding signal of -0.176 E-score.
In the case of AATCCTCG it was -0.299 E-score; in that of CTTTCCCC, -0.0416 E-score.
GGTAGGTA displayed a binding signal of 0.331 E-score.
In turn, GTTGCCGA gave a binding signal of -0.128 E-score.
In the case of AAACCTGA it was -0.0895 E-score; in that of CCCTCTAA, -0.074 E-score; in that of CATTAACA, 0.116 E-score.
Turning to CACCGCTG, the binding signal was -0.0906 E-score.
As for ATTCCCTC, the figure is -0.114 E-score; as for GTAAACCA, 0.134 E-score.
As for AGGATTGG, the figure is -0.179 E-score.
In the case of CAGTGATC it was -0.136 E-score; in that of AGCGAAGG, -0.231 E-score; in that of ACTTACCG, 0.145 E-score.
For CTAGGTAA, the binding signal was 0.102 E-score.
As for GCGAGCAA, the figure is -0.0854 E-score.
As for ACCTCCGG, the figure is -0.0674 E-score; as for GACGCCGA, -0.224 E-score; as for CCCTATCA, -0.0872 E-score.
In the case of CATAGTCC it was -0.076 E-score.
Sequence CTCCCCAG displayed a binding signal of -0.351 E-score.
In the case of GGGTTTAC it was -0.00388 E-score.
In the case of CTGCGTTA it was -0.0638 E-score; in that of AGCCACCC, -0.246 E-score.
GGTCATAC yielded a binding signal of 0.051 E-score.
As for CGCCCTAA, the figure is -0.151 E-score; as for CATAGATC, 0.231 E-score; as for ATAACTCA, 0.132 E-score.
AAGGTTAA yielded a binding signal of 0.0704 E-score.
In the case of ACCTCCAC it was -0.155 E-score; in that of GCGCCTCC, -0.384 E-score.
In the case of CGACGTCG it was -0.174 E-score.
In the case of GGTGACAA it was -0.0754 E-score.
In turn, CGTCACCC came in with a binding signal of -0.332 E-score.
As for CTGAATGA, the figure is -0.213 E-score; as for ATACAGAC, 0.0329 E-score.
In the case of ATGGCTAA it was 0.0632 E-score; in that of CGCTTACC, -0.097 E-score.
In the case of CCCCCAAC it was -0.36 E-score; in that of AACTTCAA, 0.0439 E-score; in that of CCGCTTTC, 0.0607 E-score.
In turn, AGAGAATG came in with a binding signal of 0.0921 E-score.
In the case of ATCAGATG it was 0.146 E-score.
In the case of ACCAGACG it was -0.153 E-score; in that of ACGCAGGC, -0.296 E-score.
As for AAGTCCAC, the binding signal was -0.116 E-score.
As for AACGTTGT, the figure is 0.168 E-score.
As for AAGAGCAG, the figure is -0.153 E-score.
Consider ACCGTGTA, for which the binding signal was determined as 0.00113 E-score.
As for ATCTAGCC, the figure is 0.168 E-score; as for ACTTGGCT, 0.0691 E-score.
Sequence CCGGGCAG had a binding signal of -0.302 E-score.
In the case of ACAGGCAG it was -0.324 E-score; in that of TAATTGGA, 0.0517 E-score; in that of TCTATAGA, 0.311 E-score.
As for GAGGGTAC, the figure is -0.155 E-score; as for ACCGGCAG, -0.0869 E-score; as for AGCGCGGC, -0.11 E-score.
Sequence GGGTTCGA yielded a binding signal of -0.000728 E-score.
In the case of AGAACCGA it was 0.0991 E-score; in that of CAAGCACG, -0.178 E-score.
As to AGTAATAG, the binding signal worked out at 0.355 E-score.
In the case of CACTACGG it was 0.0947 E-score.
In the case of CGCAGGTC it was -0.231 E-score; in that of CATATTGC, 0.0992 E-score; in that of CGGGGTAC, -0.169 E-score.
Regarding TAATACGA, the binding signal stood at 0.284 E-score.
In the case of GACGTATC it was 0.0546 E-score.
With CCCTGTAA, the binding signal is -0.0724 E-score.
In the case of GGACGTCA it was -0.212 E-score.
As for GTTATGAA, the binding signal is 0.214 E-score.
The sequence TCGTGAGA displayed a binding signal of 0.0406 E-score.
In the case of ACATGCGT it was -0.0138 E-score; in that of CTCGTGGC, -0.346 E-score; in that of GCATGACA, -0.159 E-score.
In the case of CACTCTGG it was 0.0657 E-score; in that of CACTTTAA, 0.0796 E-score; in that of AGGCGTTA, 0.0492 E-score.
In turn, CATATAAG displayed a binding signal of 0.0717 E-score.
As for AGCGGTAG, the figure is 0.33 E-score.
In the case of ACATCTAG it was 0.323 E-score.
In the case of GCAAGTAA it was -0.0287 E-score; in that of CGCGACCC, -0.177 E-score.
Turning to ATACGCGA, the binding signal amounted to 0.229 E-score.
As for TCAATTAA, the figure is 0.161 E-score; as for GACTCCCA, -0.104 E-score.
In the case of GTAATTGA it was 0.0917 E-score.
For AGGCGTAC, the binding signal is -0.128 E-score.
As for GCATAACA, the figure is 0.112 E-score; as for CTCTGATA, -0.0272 E-score.
As for ATAGTAAG, the binding signal was determined as 0.278 E-score.
As for ACCGCAAC, the figure is 0.0546 E-score.
In the case of ACCAGGGC it was -0.272 E-score; in that of CGTTAGAC, -0.112 E-score; in that of CAGCCTGA, -0.0891 E-score.
In the case of ACCTTATG it was -0.0324 E-score; in that of AAAGCATT, 0.0498 E-score.
Consider AATTCTGG, for which the binding signal was 0.093 E-score.
In the case of GCAATAGC it was -0.0919 E-score; in that of CGTAGTAG, 0.223 E-score.
As for ATTTCTAC, the figure is 0.353 E-score; as for GCGCGAGA, 0.0479 E-score.
In the case of GGCAAGAC it was -0.151 E-score.

Source of the values: publication PMC6212790.
